# According to PubChem BioAssay AID1794842 (National Center for Advancing Translational Sciences (NCATS), 2023):
# Screen size: about 2,800 compounds; fewer than 10 were called active. The call rests on the fitted dose curve; in most records, active means well fitted curve in the direction sought with a large enough effect; inconclusive means small, poorly fitted or top-dose-only effect, or another doubt; inactive means no such curve, though single readings can be large or run the other way. Some of the results follow.
# Target: Metallo-beta-lactamase type 2 (Klebsiella pneumoniae) (UniProt C7C422)
# Chain of UniProt C7C422 (C7C422 whole entry, looked up): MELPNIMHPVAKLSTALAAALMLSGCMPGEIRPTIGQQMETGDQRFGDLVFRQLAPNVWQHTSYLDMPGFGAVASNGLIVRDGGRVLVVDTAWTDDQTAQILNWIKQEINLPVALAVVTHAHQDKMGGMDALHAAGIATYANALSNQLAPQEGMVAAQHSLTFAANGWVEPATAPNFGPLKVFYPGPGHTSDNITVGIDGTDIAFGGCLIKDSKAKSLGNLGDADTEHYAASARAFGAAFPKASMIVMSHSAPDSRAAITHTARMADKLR
# Assay: qHTS to identify inhibitors of the New Delhi Metallo-beta-lactamase (NDM): Meropenem screen against the machine-based learning selections. Further: % of control where 0% means no effect.
# Settings: Purified NDM-1, meropenem hydrolysis, absorbance 300 nm; at 38.4 µM (top of the series) unless noted
# Procedure, shortened: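 Hydrolysis by 2 nM NDM-1 was followed by absorbance after >30 min compound preincubation in HEPES pH 7.0 buffer with 1 uM Zn2SO4. For nitrocefin (16.7 uM, 15 min, 485 nm) and meropenem (50 uM, 30 min, 300 nm), each substrate ran on separate plates.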
row,SMILES,"activity change, negative = inhibition"
1,COc1ccccc1-c1nnc([C@H]2CCN(C3CCN(C)CC3)C2)o1,inactive: 3.08% [at 57.5 µM]
2,Cc1ccsc1CN1CC(Oc2ccccc2C(=O)NC2CC2)C1,inactive: -4.05%
3,O=C(O)C1CNCCN(Cc2ccc(-c3nn[nH]n3)cc2)C1 (configuration not stated),inactive: 49.7%
4,COc1ccc(NC(=O)N2CCc3c(nc4cc(-c5ccccc5)[nH]n4c3=O)C2)c(OC)c1,inactive: 8.8%
5,CN(Cc1ccc(F)cc1)C(=O)C1CCCC1,inactive: -0.602% [at 57.5 µM]
6,COc1ccccc1C(O)c1nc(Nc2cccc(F)c2)n[nH]1 (configuration not stated),inactive: -0.846% [at 57.5 µM]
7,COCCOCC1(CNC(=O)Nc2cccnc2)C[C@@H](O)[C@@H](O)C1 (some centres not stated),inactive: 50.4% [at 57.5 µM]
8,COc1ccc(-c2ccnc(N[C@H]3CO[C@H]4[C@@H]3OC[C@@H]4NS(=O)(=O)c3ccc(C)cc3)n2)cc1,inactive: 2.73%
9,CCNC(=O)N1C[C@@H]2OCC(=O)N(C(C)C)[C@@H]2C1,inactive: -0.071% [at 76.7 µM]
10,CC1(COc2cccnc2)COc2ccc(C(=O)NC3CCC(O)CC3)cc2N1 (configuration not stated),inactive: 5.98% [at 57.5 µM]
11,Oc1ccccc1-c1cc(-c2cccnc2)c2cncn2c1,inactive: 24.9% [at 76.7 µM]
12,CCOc1ccccc1NC(=O)Cn1ccn2nc(-c3ccccc3)c(CO)c2c1=O,inactive: 0.561%
13,COc1ccc(C(=O)N[C@H]2C[C@H]3C(=O)Nc4cc(Cl)ccc4C(=O)N3C2)cc1,inactive: -1.35% [at 57.5 µM]
14,NS(=O)(=O)c1ccc(-n2nc(C3CCOC3)nc2C2CCC2)cc1 (configuration not stated),inactive: -2.61%
15,CC1(C)CN(C(=O)c2ccccc2Oc2ccccc2)CC1(C)O (configuration not stated),inactive: -0.132%
16,O=C(O)c1cc(-c2cn[nH]c2)cc(S(=O)(=O)N2CCSCC2)c1,inactive: 1.21%
17,Cc1ccc(CN2CC[C@H](c3nnc(-c4ccco4)o3)C2)o1,inactive: -1.92% [at 57.5 µM]
18,CNC(=O)c1cccc(-c2cnc(Nc3ccncc3)c3c2CCO3)c1,inactive: -0.986% [at 57.5 µM]
19,O=C(c1ccccc1Cl)N1CCCC(c2nn(-c3ccccc3)c(=O)[nH]2)C1 (configuration not stated),inactive: 3.06%

row,SMILES,"activity change, negative = inhibition"
1,CC1=C[C@@H](CNC(=O)Nc2ccc(Cl)cc2)[C@H](C(C)C)C[C@H]1CC(=O)N(C)Cc1cccnc1,inactive: 0.724%
2,O=C(c1cccs1)C1CCCN(C(=O)c2ccc3nccn3c2)C1 (configuration not stated),inactive: 0.353%
3,CCN(CC)Cc1cnc2c(C(=O)NCCc3c[nH]c4ccccc34)cnn2c1,inactive: -0.28%
4,Cc1ccc(NC(=O)c2ccccc2)c(NC(=O)C2CCN(CC(N)=O)CC2)c1,inactive: -1.35%
5,OC[C@H]1CCN(c2ccnc3c(C(F)(F)F)cccc23)C[C@H]1O,inactive: 1.06%
6,CC(=O)N1CCN(c2cc(-c3noc([C@@H]4CCCN4Cc4ccc(N(C)C)cc4)n3)ccn2)CC1,inactive: 0.877%
7,NC(=O)[C@@H](Cc1c[nH]c2ccccc12)NC(=O)[C@@H]1[C@@H](NC(=O)NC2CCCCC2)CCN1C(=O)c1cnccn1,inactive: 2.48%
8,COc1ccc(CNC(=O)C[C@@H]2C[C@H]3O[C@H](CNC(=O)NCc4ccccc4)[C@@H](O)[C@H]3O2)cc1,inactive: -0.708%
9,O=C(NC[C@H]1O[C@@H]2C[C@@H](CC(=O)N3CCC(F)(F)C3)O[C@@H]2[C@@H]1O)Nc1cccc(Cl)c1,inactive: 0.968%
10,COc1ccccc1N1CCN([C@@H]2[C@H](O)[C@H](CO)O[C@@H]2CN(Cc2ccc(F)cc2)Cc2ccc(F)cc2)CC1,inactive: 58.5%
11,Oc1cccc(Nc2cnc3ccc(-c4ccc(F)cc4)nn23)c1,inactive: 11.4% [at 57.5 µM]
12,O=c1c2nc(Nc3ccc(C(F)(F)F)cc3)ccc2ncn1Cc1ccccn1,inactive: 5.89% [at 57.5 µM]
13,CCN(CC)C(=O)C(C)[C@@H]1CC[C@@]2(C)Cc3sc(NC(=O)C4CC4)nc3[C@@H](C)[C@@H]2[C@H]1O (some centres not stated),inactive: -2.96%
14,NC(=O)c1cccc(-c2cc3c(cn2)CN(Cc2ccncc2)CCN3)c1,inactive: 0.513% [at 57.5 µM]
15,COc1ccccc1-c1ccnc(N[C@H]2CO[C@H]3[C@@H]2OC[C@@H]3NC(=O)Nc2cccc(C(F)(F)F)c2)n1,inactive: 0.821%
16,CC(=O)c1[nH]c(C)c(C(=O)N2CCCC(O)(CNC(=O)N(C)C)CC2)c1C (configuration not stated),inactive: 8.7%
17,Oc1ccccc1CN1CC(CNc2cccnc2)C2(C1)CN(c1ccccc1)C2 (configuration not stated),inactive: 1.58% [at 57.5 µM]
18,COc1ccc(CN2C[C@H](O)C[C@H]2c2nc(CS(=O)(=O)c3ccc(F)cc3)no2)cc1,inactive: -2.39%
